Laboratory results published in PubChem BioAssay (NCATS).
The inconclusive results got no clear call from the source; some entries with a clear call stand among them for comparison. For part of these data: Potencies beside an inconclusive call are fits to weak or partial responses and may not hold up. Active and inactive are the calls of the source. Calls follow the shape of the dose curve; as a rule, active = well fitted curve in the direction sought with a large enough effect; inconclusive = small, poorly fitted or top-dose-only effect, or another doubt; inactive = no such curve, though single readings can be large; an effect the other way counts as inactive or inconclusive.

Experiments:
[1] = Primary qHTS for inhibitors of nuclear receptor binding SET domain protein 2 (NSD2) in an isogenic RCH-ACV NSD2 p.E1099K mutant (9B) (AID 1645876); also: nearly all actives have a fitted effect of over 70% in size; also: potency is read from the fitted curve at half-maximal effect
[2] = target: Metallo-beta-lactamase type 2 (Klebsiella pneumoniae) (UniProt C7C422); test: qHTS to identify inhibitors of the New Delhi Metallo-beta-lactamase (NDM): assay validation screen against the NCATS LOPAC Collection (AID 1794843); also: potency is read from the fitted curve at half-maximal effect
Sequence of UniProt C7C422 (C7C422 whole entry, looked up): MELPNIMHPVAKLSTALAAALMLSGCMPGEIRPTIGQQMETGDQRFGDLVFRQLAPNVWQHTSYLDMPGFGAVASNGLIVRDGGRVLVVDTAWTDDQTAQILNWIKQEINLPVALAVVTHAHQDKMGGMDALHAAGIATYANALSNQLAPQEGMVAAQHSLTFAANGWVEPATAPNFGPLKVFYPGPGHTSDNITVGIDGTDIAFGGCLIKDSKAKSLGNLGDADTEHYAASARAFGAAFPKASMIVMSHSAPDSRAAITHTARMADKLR
Summary of the method: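 Absorbance at 485 nm from nitrocefin turnover (50 uM solution added), read at plateau, gives the read-out. Compounds in DMSO were incubated first with 2 nM final NDM-1 in pH 7.0 HEPES buffer containing 1 uM ZnSO4 and 0.01% Tween20.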

[3] = target: Glutathione peroxidase 1 (Homo sapiens) (UniProt P07203); test: Primary qHTS Assay for Inhibitors of Recombinant Selenoprotein Glutathione Peroxidase 1 (GPX1) (AID 1845191); also: potency is read from the fitted curve at half-maximal effect; nearly all actives have a fitted effect of over 65% in size
Sequence of UniProt P07203 (P07203 whole entry, looked up): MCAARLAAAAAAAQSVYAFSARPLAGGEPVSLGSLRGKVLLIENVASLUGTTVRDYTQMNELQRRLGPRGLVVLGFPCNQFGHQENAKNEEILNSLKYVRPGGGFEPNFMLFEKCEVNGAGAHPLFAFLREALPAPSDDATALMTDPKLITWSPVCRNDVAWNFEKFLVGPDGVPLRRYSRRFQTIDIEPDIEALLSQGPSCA
Summary of the method: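 GR-coupled assay: compounds preincubated 30 min at room temperature with GPX1, then reaction started with CHP; final 10 nM GPX1, 1 mM GSH, 0.5 mM CHP, 0.5 mM NADPH, 100 nM GR, 0.01% BSA, pH 7.5 Tris buffer. NADPH fluorescence (340/450 nm) read at 0 and 15 min.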

[4] = Primary fluorescence-based thiol-reactive (MSTI) qHTS assay for identification of artifact compounds. (AID 1845221); also: potency is read from the fitted curve at half-maximal effect;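 also: thiol-reactive compounds lower the probe fluorescence signal; nearly all actives have a fitted effect of over 65% in size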
Summary of the method: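 Curve-fitted percent inhibition (4-parameter Hill) derived from fluorescence, Ex 525/Em 598 nm, scaled with Acetyl-MSTI and MSTI; 1 h incubation at room temperature.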

[5] = target: Rap guanine nucleotide exchange factor 3 (Homo sapiens) (UniProt O95398); test: Confirmatory qHTS for antagonist of cAMP-regulated guanine nucleotide exchange factor 3 (EPAC1) (AID 1645880); also: potency is read from the fitted curve at half-maximal effect; nearly all actives have a fitted effect of over 55% in size
Sequence of UniProt O95398 (O95398 whole entry, looked up): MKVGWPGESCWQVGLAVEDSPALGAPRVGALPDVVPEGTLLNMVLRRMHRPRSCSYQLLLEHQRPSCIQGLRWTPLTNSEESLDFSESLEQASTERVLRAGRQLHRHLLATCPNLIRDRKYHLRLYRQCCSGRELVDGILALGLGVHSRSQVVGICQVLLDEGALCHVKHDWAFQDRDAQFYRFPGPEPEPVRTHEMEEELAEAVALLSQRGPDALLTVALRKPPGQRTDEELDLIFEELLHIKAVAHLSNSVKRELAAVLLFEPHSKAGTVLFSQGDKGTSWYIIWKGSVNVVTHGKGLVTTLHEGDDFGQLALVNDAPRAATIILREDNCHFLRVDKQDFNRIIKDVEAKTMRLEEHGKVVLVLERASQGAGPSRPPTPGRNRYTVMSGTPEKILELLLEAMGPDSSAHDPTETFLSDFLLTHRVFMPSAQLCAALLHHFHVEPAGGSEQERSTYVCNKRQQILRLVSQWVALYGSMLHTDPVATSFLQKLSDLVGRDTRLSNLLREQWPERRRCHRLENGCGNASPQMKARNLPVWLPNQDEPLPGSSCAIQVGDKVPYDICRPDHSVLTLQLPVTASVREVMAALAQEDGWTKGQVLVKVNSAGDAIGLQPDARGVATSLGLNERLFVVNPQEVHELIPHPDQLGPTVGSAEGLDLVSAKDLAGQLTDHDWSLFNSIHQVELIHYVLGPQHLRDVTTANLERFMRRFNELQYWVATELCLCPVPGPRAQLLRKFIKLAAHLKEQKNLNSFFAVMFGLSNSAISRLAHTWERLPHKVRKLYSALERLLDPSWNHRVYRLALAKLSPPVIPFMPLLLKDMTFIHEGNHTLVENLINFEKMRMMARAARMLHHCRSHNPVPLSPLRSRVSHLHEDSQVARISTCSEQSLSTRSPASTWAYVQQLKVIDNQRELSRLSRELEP
Summary of the method: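 Nucleotide exchange uses 100 nM EPAC1, 250 nM RAP1B-BODIPY-GDP and 50 uM GDP, with compounds in a concentration-titration series. After 5 min at room temperature, fluorescence (480 nm ex/540 nm em) is read every 5 min for 30 min. Data are normalized to control ATA and DMSO.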

[6] = target: Rap guanine nucleotide exchange factor 4 (Homo sapiens) (UniProt Q8WZA2); test: Confirmatory qHTS for antagonist of cAMP-regulated guanine nucleotide exchange factor 4 (EPAC2) (AID 1645885); also: potency is read from the fitted curve at half-maximal effect; nearly all actives have a fitted effect of over 25% in size
Sequence of UniProt Q8WZA2 (Q8WZA2 whole entry, looked up): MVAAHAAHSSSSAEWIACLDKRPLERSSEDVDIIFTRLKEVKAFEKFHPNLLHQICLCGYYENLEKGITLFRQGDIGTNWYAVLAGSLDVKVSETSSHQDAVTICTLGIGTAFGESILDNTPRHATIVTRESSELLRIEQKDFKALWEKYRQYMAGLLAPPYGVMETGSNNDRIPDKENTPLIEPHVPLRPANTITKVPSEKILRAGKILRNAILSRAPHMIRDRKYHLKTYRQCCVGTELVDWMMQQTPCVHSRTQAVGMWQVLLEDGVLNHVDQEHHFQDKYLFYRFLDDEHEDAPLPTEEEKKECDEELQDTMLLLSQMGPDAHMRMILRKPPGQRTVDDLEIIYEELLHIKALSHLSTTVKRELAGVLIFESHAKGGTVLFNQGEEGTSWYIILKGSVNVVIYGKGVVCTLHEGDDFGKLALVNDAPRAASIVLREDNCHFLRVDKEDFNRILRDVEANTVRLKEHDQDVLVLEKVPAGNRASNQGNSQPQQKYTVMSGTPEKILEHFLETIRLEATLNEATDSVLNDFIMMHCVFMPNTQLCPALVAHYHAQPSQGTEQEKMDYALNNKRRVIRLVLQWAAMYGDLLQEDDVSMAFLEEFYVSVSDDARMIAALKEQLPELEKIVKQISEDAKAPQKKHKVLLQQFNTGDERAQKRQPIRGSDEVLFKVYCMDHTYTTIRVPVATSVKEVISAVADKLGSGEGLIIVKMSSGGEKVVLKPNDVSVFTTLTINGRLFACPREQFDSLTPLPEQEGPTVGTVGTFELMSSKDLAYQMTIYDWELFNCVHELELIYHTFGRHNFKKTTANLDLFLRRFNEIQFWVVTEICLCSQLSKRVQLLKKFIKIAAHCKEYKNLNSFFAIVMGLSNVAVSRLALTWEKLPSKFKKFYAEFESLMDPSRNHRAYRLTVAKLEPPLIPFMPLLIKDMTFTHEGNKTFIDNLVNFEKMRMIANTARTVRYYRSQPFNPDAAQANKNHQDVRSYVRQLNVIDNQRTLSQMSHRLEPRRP

[7] = target: Phospholipid hydroperoxide glutathione peroxidase GPX4 (Homo sapiens) (UniProt P36969); test: Primary qHTS Assay for Inhibitors of Recombinant Selenoprotein Glutathione Peroxidase 4 (GPX4) (AID 1845192); also: potency is read from the fitted curve at half-maximal effect; nearly all actives have a fitted effect of over 65% in size
Sequence of UniProt P36969 (P36969 whole entry, looked up): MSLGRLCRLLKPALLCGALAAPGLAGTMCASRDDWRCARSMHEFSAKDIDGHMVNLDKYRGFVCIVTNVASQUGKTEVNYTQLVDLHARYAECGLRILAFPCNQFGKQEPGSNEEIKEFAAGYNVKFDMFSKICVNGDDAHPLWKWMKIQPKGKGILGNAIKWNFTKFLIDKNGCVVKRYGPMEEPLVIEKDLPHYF
Summary of the method: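 GR-coupled assay: recombinant GPX4 preincubated 30 min with compound at room temperature; final 200 nM GPX4, 1 mM GSH, 0.5 mM cumene hydroperoxide, 0.5 mM NADPH, 100 nM GR, 0.01% BSA, pH 7.5 Tris. NADPH fluorescence (340/450 nm) read at 0 and 15 min.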

[8] = Primary qHTS for inhibitors of nuclear receptor binding SET domain protein 2 (NSD2) in an RCH-ACV wild type WT cells (2C) (AID 1645877); also: nearly all actives have a fitted effect of over 70% in size
[9] = target: Luciferin 4-monooxygenase (Photinus pyralis) (UniProt P08659); test: Primary firefly luciferase (FLuc) qHTS assay for identification of artifact compounds. (AID 1845220); also: nearly all actives have a fitted effect of over 60% in size
Summary of the method: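 Titrated compounds were incubated 15 min at RT, protected from light, with luciferin and ATP at 10 uM; reaction started with 10 nM FLuc, luminescence imaged at 5 min, and concentration-response fitted by Hill equation.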
Tags tell the direction and shape of the fitted curve.

Q: What does the source list for COC[C@H]1OC(=O)c2coc3c2[C@@]1(C)C1=C(C3=O)C2CCC(=O)[C@@]2(C)C[C@H]1OC(C)=O (stereo not given in full)?
A: Potency [1]: inconclusive: 16.3 µM [inhibitor, single point]; Potency [2]: inconclusive: 28.2 µM [inhibitor, partial curve, poor fit]; Potency [3]: inconclusive: 25.5 µM [inhibitor, single point]; Potency [4]: inconclusive: 2.99 µM [inhibitor, partial curve]

Q: For CN1C(=O)[C@]23CC4C(C)(C)[C@@]5(C[C@@]41CN2CC[C@@]3(C)O)C(=O)Nc1c5ccc2c1OC=CC(C)(C)O2 (stereo not given in full), which Potency [1] is on record?
A: inactive

Q: What about the Potency [4] of the same compound?
A: inconclusive: 14.6 µM [inhibitor, partial curve]

Q: Which Potency [1] does the source give for C[C@]12CC[C@@H]3c4ccc(OC(=O)N(CCCl)CCCl)cc4CC[C@H]3[C@@H]1CC[C@@H]2O here?
A: inconclusive: 23.7 µM [inhibitor, single point]

Q: And the Potency [5]?
A: inconclusive: 11.1 µM [inhibitor, full curve]

Q: What about the Potency [6] of the same compound?
A: inconclusive: 17.5 µM [inhibitor, partial curve]

Q: With CN[C@@H]1C[C@H]2O[C@@](C)([C@@H]1OC)n1c3ccccc3c3c4c(c5c6ccccc6n2c5c31)C(=O)NC4 as the compound, how does the Potency [1] read?
A: active: 0.0372 µM

Q: What about the Potency [7] of the same compound?
A: inconclusive: 18 µM [inhibitor, partial curve]

Q: With CCN(CC)CCOC(=O)C(O)(c1ccccc1)c1ccccc1 as the compound, how does the Potency [8] read?
A: inactive

Q: Which Potency [1] does the source give for CC[C@@H]1C[C@H]2CC[C@H](O2)[C@H](C)C(=O)O[C@@H](C)C[C@@H]2CC[C@@H](O2)[C@@H](C)C(=O)O[C@H](C)C[C@H]2CC[C@H](O2)[C@H](C)C(=O)O[C@@H](C)C[C@@H]2CC[C@@H](O2)[C@@H](C)C(=O)O1 here?
A: active: 0.0216 µM

Q: And the Potency [4]?
A: inconclusive: 5 µM [inhibitor, partial curve]

Q: Which results are given for CC1CCCC(O)CCC/C=C/c2cc(O)cc(O)c2C(=O)O1 (stereo not given)?
A: Potency [1]: inconclusive: 12.7 µM [inhibitor, single point]; Potency [3]: inconclusive: 19.8 µM [inhibitor, partial curve, poor fit]; Potency [4]: active: 1.85 µM

Q: For CN1C(=O)c2ccccc2NC(=O)C1Cc1ccccc1 (stereo not given), which Potency [1] is on record?
A: inactive

Q: And the Potency [4]?
A: inconclusive: 29.9 µM [inhibitor, single point]

Q: Which Potency [1] does the source give for CC(=O)OCC1=C(C(=O)O)N2C(=O)[C@@H](N)[C@H]2SC1 here?
A: inconclusive: 5.17 µM [inhibitor, partial curve]

Q: What about the Potency [3] of the same compound?
A: active: 12.8 µM

Q: What about the Potency [7] of the same compound?
A: inconclusive: 22.7 µM [inhibitor, single point]

Q: And the Potency [4]?
A: inconclusive: 2.38 µM [inhibitor, full curve, poor fit]

Q: Which Potency [1] does the source give for CN1CCN(c2ccc([N+](=O)[O-])c3no[n+]([O-])c23)CC1 here?
A: inconclusive: 23.5 µM [inhibitor, single point]

Q: What about the Potency [3] of the same compound?
A: active: 18.3 µM

Q: What about the Potency [4] of the same compound?
A: active: 11.9 µM

Q: With CCC1NC(=O)C2C(Cl)C(Cl)CN2C(=O)C(C(C)O)NC(=O)CC(c2ccccc2)NC(=O)C(CO)NC1=O (stereo not given) as the compound, how does the Potency [1] read?
A: inactive

Q: What about the Potency [4] of the same compound?
A: inconclusive: 7.93 µM [inhibitor, partial curve]

Q: What does the source list for CCOC(=O)Nc1ccc(NCc2ccc(F)cc2)cc1N?
A: Potency [1]: inconclusive: 37.2 µM [inhibitor, single point]; Potency [3]: inconclusive: 20.2 µM [inhibitor, single point]; Potency [7]: inconclusive: 18 µM [inhibitor, single point]; Potency [4]: active: 1.19 µM

Q: Which Potency [1] does the source give for COC1CC(OC2CCC3(C=O)C(CCC4C3CCC3(C)C(C5=CC(=O)OC5)CCC43O)C2)OC(C)C1OC1OC(CO)C(O)C(O)C1O (stereo not given) here?
A: active: 0.0858 µM

Q: And the Potency [4]?
A: inactive

Q: Which Potency [1] does the source give for COc1ccc2[nH]c(-c3ccccc3)c(CCN(C)C)c2c1 here?
A: inconclusive: 29 µM [inhibitor, single point]

Q: What about the Potency [7] of the same compound?
A: active: 16.1 µM

Q: And the Potency [4]?
A: inconclusive: 10.6 µM [inhibitor, partial curve]

Q: For COc1cc(CCNCc2ccccc2O)c(OC)cc1C#N, which Potency [1] is on record?
A: inactive

Q: What about the Potency [9] of the same compound?
A: inactive

Q: Which Potency [1] does the source give for COc1c(C(C)C)cc2c(c1O)[C@@]1(C(=O)O)CCCC(C)(C)C1CC2 (stereo not given in full) here?
A: inactive

Q: And the Potency [4]?
A: inconclusive: 16.5 µM [inhibitor, partial curve]

Q: Which results are given for N#Cc1ccccc1-c1cc(-c2ccccn2)cn(-c2ccccc2)c1=O?
A: Potency [1]: inactive; Potency [7]: active: 25.5 µM

Q: Which results are given for CCC1CC2CN3CCc4c([nH]c5ccccc45)C(C(=O)OC)(C2)C13 (stereo not given)?
A: Potency [1]: inactive; Potency [4]: inconclusive: 1.65 µM [inhibitor, full curve]
